# Results reported in paper PMC9911399, “Two distinct binding modes provide the RNA-binding protein RbFox with extraordinary sequence specificity”.
# Numbering of substitutions follows the chain as printed; changes in the protein carry UniProt numbers. The list shows a part of the results.
# T1: RBFOX1 RRM (Homo sapiens, UniProt Q9NWB1 109-208)
# T1 sequence: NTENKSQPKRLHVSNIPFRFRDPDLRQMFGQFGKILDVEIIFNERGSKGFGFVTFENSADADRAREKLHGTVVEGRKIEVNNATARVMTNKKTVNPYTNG
# B1: UCUUCCU (DNA:RNA)
# RNA: GGGAGACCGGAAUUCAGAUUGUCCUCUUCCUUUAAAUCCCGUCGUAGCCACCA
# DNA 1: CAATCTGAATTCCGGTCTCCC
# DNA 2: TGGTGGCTACGACGGGATT
# B2: GUGACCA (DNA:RNA)
# RNA: B1 RNA with U25G, C26U, U27G, U28A, U31A
# DNA 1: CAATCTGAATTCCGGTCTCCC
# DNA 2: TGGTGGCTACGACGGGATT
# B3: ACGAGUC (DNA:RNA)
# RNA: B1 RNA with U25A, U27G, U28A, C29G, C30U, U31C
# DNA 1: CAATCTGAATTCCGGTCTCCC
# DNA 2: TGGTGGCTACGACGGGATT
# B4: GGUGAUU (DNA:RNA)
# RNA: B1 RNA with U25G, C26G, U28G, C29A, C30U
# DNA 1: CAATCTGAATTCCGGTCTCCC
# DNA 2: TGGTGGCTACGACGGGATT
# B5: GGGGCGU (DNA:RNA)
# RNA: B1 RNA with U25G, C26G, U27G, U28G, C30G
# DNA 1: CAATCTGAATTCCGGTCTCCC
# DNA 2: TGGTGGCTACGACGGGATT
# B6: CCCAUGC (DNA:RNA)
# RNA: B1 RNA with U25C, U27C, U28A, C29U, C30G, U31C
# DNA 1: CAATCTGAATTCCGGTCTCCC
# DNA 2: TGGTGGCTACGACGGGATT
# B7: GAUUAUA (DNA:RNA)
# RNA: B1 RNA with U25G, C26A, C29A, C30U, U31A
# DNA 1: CAATCTGAATTCCGGTCTCCC
# DNA 2: TGGTGGCTACGACGGGATT
# B8: AGUGUUG (DNA:RNA)
# RNA: B1 RNA with U25A, C26G, U28G, C29U, C30U, U31G
# DNA 1: CAATCTGAATTCCGGTCTCCC
# DNA 2: TGGTGGCTACGACGGGATT
# B9: AUAGGAA (DNA:RNA)
# RNA: GGGAGACCGGAAUUCAGAUUGUCCAUAGGAAUUAAAUCCCGUCGUAGCCACCA
# DNA 1: CAATCTGAATTCCGGTCTCCC
# DNA 2: TGGTGGCTACGACGGGATT
# B10: AACCAGA (DNA:RNA)
# RNA: B9 RNA with U26A, A27C, G28C, G29A, A30G
# DNA 1: CAATCTGAATTCCGGTCTCCC
# DNA 2: TGGTGGCTACGACGGGATT
# B11: UGACUUA (DNA:RNA)
# RNA: B9 RNA with A25U, U26G, G28C, G29U, A30U
# DNA 1: CAATCTGAATTCCGGTCTCCC
# DNA 2: TGGTGGCTACGACGGGATT
# B12: AUAUCCA (DNA:RNA)
# RNA: B9 RNA with G28U, G29C, A30C
# DNA 1: CAATCTGAATTCCGGTCTCCC
# DNA 2: TGGTGGCTACGACGGGATT
# B13: ACCAAGU (DNA:RNA)
# RNA: B1 RNA with U25A, U27C, U28A, C29A, C30G
# DNA 1: CAATCTGAATTCCGGTCTCCC
# DNA 2: TGGTGGCTACGACGGGATT
# B14: UGGGAAU (DNA:RNA)
# RNA: B9 RNA with A25U, U26G, A27G, G29A, A31U
# DNA 1: CAATCTGAATTCCGGTCTCCC
# DNA 2: TGGTGGCTACGACGGGATT
# B15: AGCCCAG (DNA:RNA)
# RNA: B9 RNA with U26G, A27C, G28C, G29C, A31G
# DNA 1: CAATCTGAATTCCGGTCTCCC
# DNA 2: TGGTGGCTACGACGGGATT
# B16: CCUUUUA (DNA:RNA)
# RNA: B1 RNA with U25C, C29U, C30U, U31A
# DNA 1: CAATCTGAATTCCGGTCTCCC
# DNA 2: TGGTGGCTACGACGGGATT
# B17: UCAGUUG (DNA:RNA)
# RNA: B9 RNA with A25U, U26C, G29U, A30U, A31G
# DNA 1: CAATCTGAATTCCGGTCTCCC
# DNA 2: TGGTGGCTACGACGGGATT
# B18: GAUGUCG (DNA:RNA)
# RNA: B1 RNA with U25G, C26A, U28G, C29U, U31G
# DNA 1: CAATCTGAATTCCGGTCTCCC
# DNA 2: TGGTGGCTACGACGGGATT
# B19: UCAACCA (DNA:RNA)
# RNA: B1 RNA with U27A, U28A, U31A
# DNA 1: CAATCTGAATTCCGGTCTCCC
# DNA 2: TGGTGGCTACGACGGGATT
# B20: GGUUUAA (DNA:RNA)
# RNA: B9 RNA with A25G, U26G, A27U, G28U, G29U
# DNA 1: CAATCTGAATTCCGGTCTCCC
# DNA 2: TGGTGGCTACGACGGGATT
# Molecular target: T1, RBFOX1 RRM
# Experiment: EMSA; HiTS-Eq, 1 nM pool, 10 min; buffer printed only for the single-RNA assays: 10 mM Tris pH 7.5, 150 mM NaCl, 3.4 mM EDTA, 0.001% NP-40, 30 C
# Details: tags: His6 N-terminal (pET28a); label: 5' 32P
# Summary of the method: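 Relative association constants, normalised to the cognate motif, were derived by comparing read counts of each RNA species with those of the control reaction. The RNA sequenced was the free fraction, separated by 8% native PAGE after a 10 min equilibration in 50 µL of 1 nM 5′-radiolabelled RNA (7 randomized nucleotides) with increasing concentrations of purified wild-type or mutant RbFox RRM.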
row,Binder,binding signal
1,B1,0.00401 KA relative to UGCAUGU
2,B2,0.00446 KA relative to UGCAUGU
3,B3,0.00879 KA relative to UGCAUGU
4,B4,0.0123 KA relative to UGCAUGU
5,B5,0.0374 KA relative to UGCAUGU
6,B6,0.00628 KA relative to UGCAUGU
7,B7,0.00631 KA relative to UGCAUGU
8,B8,0.0143 KA relative to UGCAUGU
9,B9,0.00527 KA relative to UGCAUGU
10,B10,0.00285 KA relative to UGCAUGU
11,B11,0.012 KA relative to UGCAUGU
12,B12,0.000171 KA relative to UGCAUGU
13,B13,0.000503 KA relative to UGCAUGU
14,B14,0.0297 KA relative to UGCAUGU
15,B15,0.00689 KA relative to UGCAUGU
16,B16,0.00227 KA relative to UGCAUGU
17,B17,0.0143 KA relative to UGCAUGU
18,B18,0.0228 KA relative to UGCAUGU
19,B19,0.000331 KA relative to UGCAUGU
20,B20,0.00479 KA relative to UGCAUGU
